The subject of the series is adult subjects with moderate to severe chronic hand eczema. As to the kind of experiment: DELTA 2 phase 3 trial: twice-daily delgocitinib cream 20 mg/g vs cream vehicle for 16 weeks.

The record followed here is patent US20260263470A1, “A METHOD FOR THE TREATMENT OF CHRONIC HAND ECZEMA IN PATIENTS WITH MODERATE TO SEVERE CHRONIC HAND ECZEMA” (priority 2023, published 2026).

For the compound `C[C@H]1CN(C(=O)CC#N)[C@]12CCN(c1ncnc3[nH]ccc13)C2` [delgocitinib, Delgocitinib], the “patients who reported serious AEs” value worked out at 1.6%, the “rate of AEs assessed as probably or possibly related to study drug” value was 31.29 per 100-patient years of observation [PYO] and the “rate of AEs leading to discontinuation of study drug” value was 1.04 per 100 PYO. In addition, under “Week 16”, the “patients achieving HECSI-75” value turned out to be 49.5%, the “patients achieving HECSI-90” value came out at 31.0% and the “patients achieving ≥4-point improvement in DLQI” value came to 72.2%. The “patients achieving IGA-CHE TS (IGA-CHE score of 0 [clear] or 1 [almost clear] with at least a 2-step improvement)” value (Week 16, cream 20 mg/g twice daily) is given as 29.1%.
